Measured values published in publication PMC10632493.
No constants are given. Whether binding was seen depends on the method and setting. In cells and extracts the contact can be indirect. Some entries that bind do so weakly or less than the wild type. For some of these results: Tags and fused reporters may be left off the sequences shown.

By UniProt entry, the sequences of proteins in these tests, tags left out.
UniProt O95271: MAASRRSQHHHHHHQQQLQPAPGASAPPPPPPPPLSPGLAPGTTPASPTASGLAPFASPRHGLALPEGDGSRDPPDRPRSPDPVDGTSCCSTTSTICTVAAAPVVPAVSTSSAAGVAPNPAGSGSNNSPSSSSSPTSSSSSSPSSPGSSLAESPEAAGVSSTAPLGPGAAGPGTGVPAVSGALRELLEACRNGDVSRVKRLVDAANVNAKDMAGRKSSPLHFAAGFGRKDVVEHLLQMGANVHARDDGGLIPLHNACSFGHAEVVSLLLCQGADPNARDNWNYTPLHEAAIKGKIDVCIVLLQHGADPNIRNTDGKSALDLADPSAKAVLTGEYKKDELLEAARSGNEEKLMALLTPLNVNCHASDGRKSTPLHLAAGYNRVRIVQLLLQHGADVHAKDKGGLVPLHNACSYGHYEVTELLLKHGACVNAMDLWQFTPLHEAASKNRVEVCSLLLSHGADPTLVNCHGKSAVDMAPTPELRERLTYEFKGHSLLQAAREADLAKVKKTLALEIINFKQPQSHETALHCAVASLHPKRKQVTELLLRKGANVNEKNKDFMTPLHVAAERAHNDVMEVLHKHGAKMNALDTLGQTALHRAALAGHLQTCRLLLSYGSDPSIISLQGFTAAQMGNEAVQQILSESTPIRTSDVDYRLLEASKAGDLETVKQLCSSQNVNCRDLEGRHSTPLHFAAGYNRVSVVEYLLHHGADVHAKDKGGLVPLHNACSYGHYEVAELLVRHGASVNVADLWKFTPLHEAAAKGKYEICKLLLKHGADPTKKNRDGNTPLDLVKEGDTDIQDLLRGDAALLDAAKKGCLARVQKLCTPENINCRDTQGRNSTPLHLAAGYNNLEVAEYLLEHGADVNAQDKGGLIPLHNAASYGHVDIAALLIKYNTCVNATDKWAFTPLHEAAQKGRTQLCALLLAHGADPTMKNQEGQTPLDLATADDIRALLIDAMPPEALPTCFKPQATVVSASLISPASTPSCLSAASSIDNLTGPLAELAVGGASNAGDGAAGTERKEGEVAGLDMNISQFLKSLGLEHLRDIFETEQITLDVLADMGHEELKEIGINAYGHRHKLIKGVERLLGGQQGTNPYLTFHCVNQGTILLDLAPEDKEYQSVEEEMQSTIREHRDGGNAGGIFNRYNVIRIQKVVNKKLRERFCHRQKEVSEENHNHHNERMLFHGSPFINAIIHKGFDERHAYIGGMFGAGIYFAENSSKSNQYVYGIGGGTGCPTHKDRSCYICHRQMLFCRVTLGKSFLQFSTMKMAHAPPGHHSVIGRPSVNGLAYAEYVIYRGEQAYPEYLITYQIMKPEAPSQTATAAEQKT

What was measured:
Flag-tagged RNF125 = target: T1, Flag-tagged RNF125 (UniProt Q96EQ8); assay: co-IP; as a3, cells treated with tankyrase inhibitor #8 (TNKSi, 10 µM): TNKS1/2 DKO HEK293T cells cotransfected with TNKS1 and Flag plasmids; anti-Flag beads; immunoblot
T1 sequence: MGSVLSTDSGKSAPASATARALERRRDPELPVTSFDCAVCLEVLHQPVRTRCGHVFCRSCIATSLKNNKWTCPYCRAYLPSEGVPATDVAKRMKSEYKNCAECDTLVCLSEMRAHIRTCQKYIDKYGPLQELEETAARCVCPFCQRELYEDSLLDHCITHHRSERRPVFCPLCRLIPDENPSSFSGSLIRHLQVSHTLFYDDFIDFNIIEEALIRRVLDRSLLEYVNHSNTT

Flag-tagged RNF138 = target: T2, Flag-tagged RNF138 (UniProt Q8WVD3); assay: as above
T2 sequence: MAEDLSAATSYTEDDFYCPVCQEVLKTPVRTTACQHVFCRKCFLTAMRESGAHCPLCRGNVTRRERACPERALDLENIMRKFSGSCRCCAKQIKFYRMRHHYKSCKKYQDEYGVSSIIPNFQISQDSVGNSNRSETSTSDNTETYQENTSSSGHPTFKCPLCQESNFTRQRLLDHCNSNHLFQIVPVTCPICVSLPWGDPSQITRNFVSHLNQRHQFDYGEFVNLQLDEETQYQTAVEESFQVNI

Flag-tagged DTX4 = target: T3, Flag-tagged DTX4 (UniProt Q9Y2E6); assay: as above
T3 sequence: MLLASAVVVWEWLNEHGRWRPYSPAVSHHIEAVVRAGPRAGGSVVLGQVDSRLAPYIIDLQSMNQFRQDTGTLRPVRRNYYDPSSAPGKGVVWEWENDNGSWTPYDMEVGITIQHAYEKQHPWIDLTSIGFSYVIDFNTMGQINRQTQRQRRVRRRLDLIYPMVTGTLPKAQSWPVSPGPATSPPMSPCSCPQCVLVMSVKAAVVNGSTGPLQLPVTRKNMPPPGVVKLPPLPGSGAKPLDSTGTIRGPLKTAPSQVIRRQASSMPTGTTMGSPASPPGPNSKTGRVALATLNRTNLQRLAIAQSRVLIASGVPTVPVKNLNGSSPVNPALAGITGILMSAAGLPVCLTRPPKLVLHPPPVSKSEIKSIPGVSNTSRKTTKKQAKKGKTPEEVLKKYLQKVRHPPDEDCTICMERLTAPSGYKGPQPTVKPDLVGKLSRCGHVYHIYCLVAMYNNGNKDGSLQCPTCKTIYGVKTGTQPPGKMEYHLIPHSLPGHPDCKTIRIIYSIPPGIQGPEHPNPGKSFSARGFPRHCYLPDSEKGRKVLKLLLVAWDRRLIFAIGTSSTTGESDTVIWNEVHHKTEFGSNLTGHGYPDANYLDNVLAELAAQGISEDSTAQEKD

Flag-tagged DTX1 = target: T4, Flag-tagged DTX1 (UniProt Q86Y01); assay: as above
T4 sequence: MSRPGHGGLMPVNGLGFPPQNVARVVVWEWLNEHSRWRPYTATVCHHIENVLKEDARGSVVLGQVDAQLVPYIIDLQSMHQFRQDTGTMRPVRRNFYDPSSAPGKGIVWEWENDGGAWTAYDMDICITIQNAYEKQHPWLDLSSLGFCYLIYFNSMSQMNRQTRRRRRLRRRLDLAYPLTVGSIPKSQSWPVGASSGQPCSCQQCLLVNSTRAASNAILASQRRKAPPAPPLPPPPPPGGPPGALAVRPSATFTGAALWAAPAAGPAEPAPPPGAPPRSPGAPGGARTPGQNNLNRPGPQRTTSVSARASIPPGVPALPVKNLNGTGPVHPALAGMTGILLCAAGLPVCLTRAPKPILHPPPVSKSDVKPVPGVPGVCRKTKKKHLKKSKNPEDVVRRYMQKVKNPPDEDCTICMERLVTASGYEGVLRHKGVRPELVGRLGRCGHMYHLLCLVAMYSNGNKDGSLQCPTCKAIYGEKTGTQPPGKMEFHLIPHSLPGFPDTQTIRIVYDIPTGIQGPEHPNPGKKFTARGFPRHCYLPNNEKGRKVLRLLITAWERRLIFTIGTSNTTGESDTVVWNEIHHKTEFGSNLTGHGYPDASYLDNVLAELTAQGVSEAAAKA

[1] = target: Flag-epitope-tagged RNF166 (FlagRNF166) (UniProt Q96A37); assay: as above
Flag-tagged DTX2 = target: T5, Flag-tagged DTX2 (UniProt Q86UW9); assay: as above
T5 sequence: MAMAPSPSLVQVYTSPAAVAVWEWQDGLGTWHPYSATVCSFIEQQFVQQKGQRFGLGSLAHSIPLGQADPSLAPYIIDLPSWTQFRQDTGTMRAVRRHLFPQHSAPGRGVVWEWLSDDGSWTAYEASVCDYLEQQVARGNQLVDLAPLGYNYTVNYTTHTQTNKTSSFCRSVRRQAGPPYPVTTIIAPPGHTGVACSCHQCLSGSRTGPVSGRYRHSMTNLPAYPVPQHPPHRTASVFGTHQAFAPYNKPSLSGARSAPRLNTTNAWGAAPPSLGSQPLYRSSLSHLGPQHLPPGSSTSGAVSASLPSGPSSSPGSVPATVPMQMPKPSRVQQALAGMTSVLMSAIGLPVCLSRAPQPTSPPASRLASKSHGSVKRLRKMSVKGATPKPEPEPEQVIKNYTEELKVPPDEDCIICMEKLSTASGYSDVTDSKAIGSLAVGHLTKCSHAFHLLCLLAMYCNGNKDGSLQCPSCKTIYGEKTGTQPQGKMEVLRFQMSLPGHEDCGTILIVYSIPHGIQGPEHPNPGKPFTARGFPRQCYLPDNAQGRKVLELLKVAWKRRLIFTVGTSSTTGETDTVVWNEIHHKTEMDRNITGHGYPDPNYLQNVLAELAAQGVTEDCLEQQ

[2] = target: Flag-epitope-tagged RNF166 (FlagRNF166) (UniProt Q96A37); assay: co-IP; Supplementary Fig. 1C: cells transfected with TNKS1 WT or CD and the E3 ligases; immunoprecipitates probed for TNKS1 and endogenous PARP1 (legend not shown)

binding (Flag-tagged RNF125): binds weakly | binding (Flag-tagged RNF138): binds weakly | binding [1]: binds weakly | binding [2]: binds
Substance: TNKS1 (transfected, TNKS.WT) (from UniProt O95271 1-1327) (enzyme)
binding (Flag-tagged DTX4): no binding (condition: with TNKSi (10 µM)) | binding (Flag-tagged DTX1): no binding (condition: with TNKSi (10 µM)) | binding (Flag-tagged DTX2): no binding (condition: with TNKSi (10 µM))
